# Measured values: PMC12820563
# The list shows a part of the results. The list includes weakly bound sequences.
# Target: T1, MBP-FoxP3dN (UniProt Q99JB6)
# T1 sequence: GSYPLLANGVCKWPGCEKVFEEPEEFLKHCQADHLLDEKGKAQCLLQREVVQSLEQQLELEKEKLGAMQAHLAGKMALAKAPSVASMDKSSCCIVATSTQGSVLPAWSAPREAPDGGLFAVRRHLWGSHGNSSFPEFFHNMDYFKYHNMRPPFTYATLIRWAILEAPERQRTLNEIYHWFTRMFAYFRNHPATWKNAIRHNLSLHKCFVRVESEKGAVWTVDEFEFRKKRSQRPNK
# Test: PD-seq (MBP pull-down with sequencing)
# Details: 20 mM Tris-HCl pH 7.5, 100 mM NaCl, 1.5 mM MgCl2, 0.4 uM protein, 0.1 uM dsDNA library, 30 min, room temperature, amylose pull-down; high values mean tight binding; double strand, one strand shown
row,Sequence,binding signal (RPM ratio (pull-down/input))
1,GATGATTGTTCTCCCAGCTGATGAATTTCCCCACTCGAGTAAACAAATTTTCCTAATCTTTCTGTTCAAGCGCCATCTAC,0.236
2,GATGATTGTTCTCCCAGCTGATGAATTTCGGAACTCGAGTAAACAAATTTTCCTAATCTTTCTGTTCAAGCGCCATCTAC,0.21
3,GATGATTGTTCTCCCAGCTGATGAATTTAAAGCCTCGAGTAAACAAATTTTCCTAATCTTTCTGTTCAAGCGCCATCTAC,0.421
4,GATGATTGTTCTCCCAGCTGATGAATTACGGTCGTCGAGTAAACAAATTTTCCTAATCTTTCTGTTCAAGCGCCATCTAC,0.576
5,GATGATTGTTCTCCCAGCTGATGAATTTCAATAATCGAGTAAACAAATTTTCCTAATCTTTCTGTTCAAGCGCCATCTAC,0.318
6,GATGATTGTTCTCCCAGCTGATGAATTGTAAGGATCGAGTAAACAAATTTTCCTAATCTTTCTGTTCAAGCGCCATCTAC,0.31
7,GATGATTGTTCTCCCAGCTGATGAATTCTAGATTTCGAGTAAACAAATTTTCCTAATCTTTCTGTTCAAGCGCCATCTAC,0.297
8,GATGATTGTTCTCCCAGCTGATGAATTCTGGCAATCGAGTAAACAAATTTTCCTAATCTTTCTGTTCAAGCGCCATCTAC,2
9,GATGATTGTTCTCCCAGCTGATGAATTCCAGACTTCGAGTAAACAAATTTTCCTAATCTTTCTGTTCAAGCGCCATCTAC,0.319
10,GATGATTGTTCTCCCAGCTGATGAATTTACCGTGTCGAGTAAACAAATTTTCCTAATCTTTCTGTTCAAGCGCCATCTAC,0.613
11,GATGATTGTTCTCCCAGCTGATGAATTAACACTGTCGAGTAAACAAATTTTCCTAATCTTTCTGTTCAAGCGCCATCTAC,0.451
12,GATGATTGTTCTCCCAGCTGATGAATTAGAACTATCGAGTAAACAAATTTTCCTAATCTTTCTGTTCAAGCGCCATCTAC,0.418
13,GATGATTGTTCTCCCAGCTGATGAATTTAGATATTCGAGTAAACAAATTTTCCTAATCTTTCTGTTCAAGCGCCATCTAC,1.13
14,GATGATTGTTCTCCCAGCTGATGAATTGATACGGTCGAGTAAACAAATTTTCCTAATCTTTCTGTTCAAGCGCCATCTAC,1.24
15,GATGATTGTTCTCCCAGCTGATGAATTCGATTTTTCGAGTAAACAAATTTTCCTAATCTTTCTGTTCAAGCGCCATCTAC,1.46
16,GATGATTGTTCTCCCAGCTGATGAATTTAAGTAGTCGAGTAAACAAATTTTCCTAATCTTTCTGTTCAAGCGCCATCTAC,0.466
17,GATGATTGTTCTCCCAGCTGATGAATTGAGAGGTTCGAGTAAACAAATTTTCCTAATCTTTCTGTTCAAGCGCCATCTAC,0.335
18,GATGATTGTTCTCCCAGCTGATGAATTCCTACGATCGAGTAAACAAATTTTCCTAATCTTTCTGTTCAAGCGCCATCTAC,0.26
19,GATGATTGTTCTCCCAGCTGATGAATTTTCGCACTCGAGTAAACAAATTTTCCTAATCTTTCTGTTCAAGCGCCATCTAC,0.504
20,GATGATTGTTCTCCCAGCTGATGAATTACGCCCGTCGAGTAAACAAATTTTCCTAATCTTTCTGTTCAAGCGCCATCTAC,2.14
21,GATGATTGTTCTCCCAGCTGATGAATTTACTTTCTCGAGTAAACAAATTTTCCTAATCTTTCTGTTCAAGCGCCATCTAC,1.32

row,Sequence,binding signal (RPM ratio (pull-down/input))
1,GATGATTGTTCTCCCAGCTGATGAATTAGGTACTTCGAGTAAACAAATTTTCCTAATCTTTCTGTTCAAGCGCCATCTAC,0.467
2,GATGATTGTTCTCCCAGCTGATGAATTGAAATAATCGAGTAAACAAATTTTCCTAATCTTTCTGTTCAAGCGCCATCTAC,0.377
3,GATGATTGTTCTCCCAGCTGATGAATTAACCGACTCGAGTAAACAAATTTTCCTAATCTTTCTGTTCAAGCGCCATCTAC,0.215
4,GATGATTGTTCTCCCAGCTGATGAATTAGTCGCCTCGAGTAAACAAATTTTCCTAATCTTTCTGTTCAAGCGCCATCTAC,0.821
5,GATGATTGTTCTCCCAGCTGATGAATTTAGTCCTTCGAGTAAACAAATTTTCCTAATCTTTCTGTTCAAGCGCCATCTAC,0.502
6,GATGATTGTTCTCCCAGCTGATGAATTATGCCCTTCGAGTAAACAAATTTTCCTAATCTTTCTGTTCAAGCGCCATCTAC,1.87
7,GATGATTGTTCTCCCAGCTGATGAATTGTAAAACTCGAGTAAACAAATTTTCCTAATCTTTCTGTTCAAGCGCCATCTAC,0.26
8,GATGATTGTTCTCCCAGCTGATGAATTTCGAATGTCGAGTAAACAAATTTTCCTAATCTTTCTGTTCAAGCGCCATCTAC,0.813
9,GATGATTGTTCTCCCAGCTGATGAATTATTACTTTCGAGTAAACAAATTTTCCTAATCTTTCTGTTCAAGCGCCATCTAC,0.431
10,GATGATTGTTCTCCCAGCTGATGAATTAAGCGTATCGAGTAAACAAATTTTCCTAATCTTTCTGTTCAAGCGCCATCTAC,1.19
11,GATGATTGTTCTCCCAGCTGATGAATTTAACATGTCGAGTAAACAAATTTTCCTAATCTTTCTGTTCAAGCGCCATCTAC,0.833
12,GATGATTGTTCTCCCAGCTGATGAATTGACTAGTTCGAGTAAACAAATTTTCCTAATCTTTCTGTTCAAGCGCCATCTAC,0.39
13,GATGATTGTTCTCCCAGCTGATGAATTTTACTGATCGAGTAAACAAATTTTCCTAATCTTTCTGTTCAAGCGCCATCTAC,0.442
14,GATGATTGTTCTCCCAGCTGATGAATTACGCCCATCGAGTAAACAAATTTTCCTAATCTTTCTGTTCAAGCGCCATCTAC,1.52
15,GATGATTGTTCTCCCAGCTGATGAATTCAAAGGATCGAGTAAACAAATTTTCCTAATCTTTCTGTTCAAGCGCCATCTAC,0.179
16,GATGATTGTTCTCCCAGCTGATGAATTCAGAACTTCGAGTAAACAAATTTTCCTAATCTTTCTGTTCAAGCGCCATCTAC,0.206
17,GATGATTGTTCTCCCAGCTGATGAATTGAAGATCTCGAGTAAACAAATTTTCCTAATCTTTCTGTTCAAGCGCCATCTAC,0.253
18,GATGATTGTTCTCCCAGCTGATGAATTCATGATCTCGAGTAAACAAATTTTCCTAATCTTTCTGTTCAAGCGCCATCTAC,0.677
19,GATGATTGTTCTCCCAGCTGATGAATTTCGTTCGTCGAGTAAACAAATTTTCCTAATCTTTCTGTTCAAGCGCCATCTAC,0.53
20,GATGATTGTTCTCCCAGCTGATGAATTTGAGTCTTCGAGTAAACAAATTTTCCTAATCTTTCTGTTCAAGCGCCATCTAC,0.761
21,GATGATTGTTCTCCCAGCTGATGAATTGGGGCCTTCGAGTAAACAAATTTTCCTAATCTTTCTGTTCAAGCGCCATCTAC,1.38

row,Sequence,binding signal (RPM ratio (pull-down/input))
1,GATGATTGTTCTCCCAGCTGATGAATTGTGGCATTCGAGTAAACAAATTTTCCTAATCTTTCTGTTCAAGCGCCATCTAC,6.18
2,GATGATTGTTCTCCCAGCTGATGAATTGCAGACTTCGAGTAAACAAATTTTCCTAATCTTTCTGTTCAAGCGCCATCTAC,0.742
3,GATGATTGTTCTCCCAGCTGATGAATTATCCGGCTCGAGTAAACAAATTTTCCTAATCTTTCTGTTCAAGCGCCATCTAC,0.196
4,GATGATTGTTCTCCCAGCTGATGAATTGGATCTATCGAGTAAACAAATTTTCCTAATCTTTCTGTTCAAGCGCCATCTAC,0.344
5,GATGATTGTTCTCCCAGCTGATGAATTTCGGGCCTCGAGTAAACAAATTTTCCTAATCTTTCTGTTCAAGCGCCATCTAC,0.404
6,GATGATTGTTCTCCCAGCTGATGAATTGTATGAATCGAGTAAACAAATTTTCCTAATCTTTCTGTTCAAGCGCCATCTAC,0.556
7,GATGATTGTTCTCCCAGCTGATGAATTGGAGCTGTCGAGTAAACAAATTTTCCTAATCTTTCTGTTCAAGCGCCATCTAC,0.312
8,GATGATTGTTCTCCCAGCTGATGAATTAAGCCTCTCGAGTAAACAAATTTTCCTAATCTTTCTGTTCAAGCGCCATCTAC,5.69
9,GATGATTGTTCTCCCAGCTGATGAATTACAGAACTCGAGTAAACAAATTTTCCTAATCTTTCTGTTCAAGCGCCATCTAC,0.283
10,GATGATTGTTCTCCCAGCTGATGAATTGTGCGAGTCGAGTAAACAAATTTTCCTAATCTTTCTGTTCAAGCGCCATCTAC,1.74
11,GATGATTGTTCTCCCAGCTGATGAATTGTTATAGTCGAGTAAACAAATTTTCCTAATCTTTCTGTTCAAGCGCCATCTAC,0.971
12,GATGATTGTTCTCCCAGCTGATGAATTCCTTACATCGAGTAAACAAATTTTCCTAATCTTTCTGTTCAAGCGCCATCTAC,0.309
13,GATGATTGTTCTCCCAGCTGATGAATTACTAGCCTCGAGTAAACAAATTTTCCTAATCTTTCTGTTCAAGCGCCATCTAC,0.45
14,GATGATTGTTCTCCCAGCTGATGAATTCCGGAATTCGAGTAAACAAATTTTCCTAATCTTTCTGTTCAAGCGCCATCTAC,0.499
15,GATGATTGTTCTCCCAGCTGATGAATTTAGTCAATCGAGTAAACAAATTTTCCTAATCTTTCTGTTCAAGCGCCATCTAC,0.393
16,GATGATTGTTCTCCCAGCTGATGAATTTGGCGACTCGAGTAAACAAATTTTCCTAATCTTTCTGTTCAAGCGCCATCTAC,1.79
17,GATGATTGTTCTCCCAGCTGATGAATTTAGGTAATCGAGTAAACAAATTTTCCTAATCTTTCTGTTCAAGCGCCATCTAC,0.861
18,GATGATTGTTCTCCCAGCTGATGAATTGCGATGGTCGAGTAAACAAATTTTCCTAATCTTTCTGTTCAAGCGCCATCTAC,1.01
19,GATGATTGTTCTCCCAGCTGATGAATTTACTGTGTCGAGTAAACAAATTTTCCTAATCTTTCTGTTCAAGCGCCATCTAC,1.6
20,GATGATTGTTCTCCCAGCTGATGAATTTGTACCTTCGAGTAAACAAATTTTCCTAATCTTTCTGTTCAAGCGCCATCTAC,2.49
21,GATGATTGTTCTCCCAGCTGATGAATTAAAAAGCTCGAGTAAACAAATTTTCCTAATCTTTCTGTTCAAGCGCCATCTAC,0.215
